# Measured values taken from the supplement of paper PMC12009370.
# This is one part of the list. Single values are uncertain, as repeats are few or missing.
# What was measured:
# [1] = system: IMR-32; assay: drug sensitivity score (DSS), single drug with vehicle (DSS (score)); higher = more cytotoxic; extreme values may be limits of the assay; conditions: 72 h; co-treatment: vehicle (DMSO)
# [2] = system: SK-N-AS; assay: as above; conditions: 72 h; co-treatment: vehicle (DMSO)
# [3] = system: SK-N-AS; assay: drug sensitivity score (DSS) in combination with SL-176 (DSS (score)); higher = more cytotoxic; extreme values may be limits of the assay; conditions: 72 h; co-treatment: SL-176 11.2 uM (IC25 in IMR-32)
# [4] = system: IMR-32; assay: as above; conditions: 72 h; co-treatment: SL-176 11.2 uM (IC25 in IMR-32)
# [5] = system: SK-N-AS; assay: drug sensitivity score (DSS) in combination with GSK2830371 (DSS (score)); neuroblastoma lines; SL-176 and GSK2830371 are WIP1 inhibitors; higher = more cytotoxic; extreme values may be limits of the assay; conditions: 72 h; co-treatment: GSK2830371 at IC25 in IMR-32
# [6] = system: IMR-32; assay: as above; conditions: 72 h; co-treatment: GSK2830371 at IC25 in IMR-32
# 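For drug sensitivity score (DSS) in combination with GSK2830371 in this document: neuroblastoma cells in 384-well plates, each compound at five concentrations, luminescence read-out, DSS derived from fitted concentration-response curve combining IC50 with minimum and maximum inhibition.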
# 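For drug sensitivity score (DSS) in combination with SL-176 in this document: cells in 384-well plates, luminescence read-out, each screening drug at five concentrations, DSS derived from the fitted concentration-response curve combining IC50 with minimum and maximum inhibition.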
# 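For drug sensitivity score (DSS), single drug with vehicle in this document: 384-well screen with five concentrations per compound and a luminescence read-out, DSS computed from the fitted dose-response curve combining IC50 with minimum and maximum inhibition.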
SMILES,drug sensitivity score [1],drug sensitivity score [2],drug sensitivity score [3],drug sensitivity score [4],drug sensitivity score [5],drug sensitivity score [6]
Cc1nc2cccc(N)c2c(=O)n1C1CCC(=O)NC1=O (centres undefined),0,0,0,0,0.1,0
COc1cc(N2CCC(N3CCN(C)CC3)CC2)ccc1Nc1ncc(Cl)c(Nc2ccccc2P(C)(C)=O)n1 [Brigatinib],0,3.7,4.6,0,3.4,0
c1cc(CN2CCCNCCNCCCNCC2)ccc1CN1CCCNCCNCCCNCC1 [Plerixafor],0,0,0,0,0,0
COc1nc(N)nc2c1ncn2[C@@H]1O[C@H](CO)[C@@H](O)[C@@H]1O [Nelarabine],0.4,0,0,10.5,0,1.2
CCN1CCN(c2ccc(Nc3cc(N(C)C(=O)Nc4c(Cl)c(OC)cc(OC)c4Cl)ncn3)cc2)CC1 [Infigratinib],0,0,0,0,0,0
Cc1cccc(CC(=O)N2CCc3c2ccc(-c2cn(C)c4ncnc(N)c24)c3F)n1,0,0.4,0.1,0,0,0
O=c1ncn2nc(Sc3ccc(F)cc3F)ccc2c1-c1c(Cl)cccc1Cl [Neflamapimod],2.7,0,0.5,0,0.1,2.8
Nc1nccc(-c2c(-c3ccc(F)cc3)ncn2C2CCCCC2)n1,3.3,0.2,0.1,4,1.2,7.1
CC(=O)c1c(C)c2cnc(Nc3ccc(N4CCNCC4)cn3)nc2n(C2CCCC2)c1=O [Palbociclib],9.5,10.8,9.3,4.8,10.7,8.4
N#Cc1ccc(C(c2ccc(C#N)cc2)n2cncn2)cc1 [Letrozole],0,0,0,0,0,0
O=C(c1ccc(OCCN2CCCCC2)cc1)c1c(-c2ccc(O)cc2)sc2cc(O)ccc12 [Raloxifene],4.9,2.3,3.2,4.5,2.4,5.6
Nc1nc(Cl)nc2c1ncn2[C@H]1C[C@H](O)[C@@H](CO)O1 [Cladribine],9.1,3.1,2.5,15.9,3.6,15.6
Nc1ccn([C@@H]2O[C@H](CO)[C@@H](O)[C@@H]2O)c(=O)n1 [Cytarabine],28.2,13.2,11.4,23,16.2,30
Cc1sc2c(c1C)C(c1ccc(Cl)cc1)=N[C@@H](CC(=O)Nc1ccc(OCCOCCOCCOCCNc3cccc4c3C(=O)N(C3CCC(=O)NC3=O)C4=O)cc1)c1nnc(C)n1-2 (some centres undefined),20.7,5.4,5.4,24.3,5.7,21.2
C[C@H]1Oc2cc(cnc2N)-c2c(nn(C)c2C#N)CN(C)C(=O)c2ccc(F)cc21,1.1,0,0,0.7,0,0
Cc1nc(Nc2ncc(C(=O)Nc3c(C)cccc3Cl)s2)cc(N2CCN(CCO)CC2)n1 [Dasatinib],0,12.3,10.5,0,12.2,0
COc1cc2c(cc1-c1c(C)noc1C)ncc1[nH]c(=O)n([C@H](C)c3ccccn3)c12,10.8,6.9,7.5,12.4,8.7,12.5
C[C@H]1C[C@@H]2[C@H]([C@@H](O)C[C@@]3(C)[C@H]2CC[C@]3(O)C(=O)CO)[C@@]2(C)C=CC(=O)C=C12 [Methylprednisolone],0,0,0,0.6,0,0
CC[C@@H]1[C@H](F)C(=O)N[C@@H]1COc1nccc2cc(C(N)=O)c(OC)cc12,1.9,1.8,3.2,3.4,1.7,3.4
O=C(/C=C/c1cccc(S(=O)(=O)Nc2ccccc2)c1)NO [Belinostat],21,20.6,18.8,20.6,21.6,24.3
CC(C)c1cc(C(=O)N2Cc3ccc(CN4CCN(C)CC4)cc3C2)c(O)cc1O [Onalespib],15.2,12.5,15.2,11.3,12.7,11
O=C1Cc2cc(C(=O)NC3C[C@H]4CC[C@@H](C3)N4S(=O)(=O)CC3CCN(CCCC(F)(F)F)CC3)c(Cl)cc2N1 (some centres undefined),0.1,0,0,0,0,0.5
CC1(COc2ccc3c(c2)ncn3-c2ccc3cccc(N4CCC(N)CC4)c3n2)COC1 [Crenolanib],8.7,6.7,7,9.2,5.4,8.6
C[C@@H]1C[C@H](N)C[C@H](c2ccncc2NC(=O)c2ccc(F)c(-c3c(F)cccc3F)n2)C1,15.7,4.2,2.9,11.6,4.5,21.8
